Assay [1] deals with T1, CD127 (immobilized to the sensor chip) (UniProt P16871 21-239, limits assumed).
T1 construct: Reagent of the Biacore assay; Nothing is said about the construct; also called CD127 receptor; IL-7R
T1 sequence (looked up): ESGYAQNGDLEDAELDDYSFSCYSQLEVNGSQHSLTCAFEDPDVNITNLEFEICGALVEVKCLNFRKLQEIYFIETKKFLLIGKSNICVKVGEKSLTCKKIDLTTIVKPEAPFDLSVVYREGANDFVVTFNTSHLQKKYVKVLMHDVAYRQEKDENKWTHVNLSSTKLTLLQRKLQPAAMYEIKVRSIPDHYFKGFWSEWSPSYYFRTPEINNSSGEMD
The experiment in a line: Biacore, CD127 immobilised to the sensor chip, bifunctional molecule at escalating doses. (In general: In SPR one partner is held on a chip, and binding of the other changes the refractive index at the surface.)

The target in assay [2] is T2, biotinylated Human PD1 (AcroBiosystems, reference EP-101) (human, UniProt Q15116 partial chain, limits assumed, biotinylated).
T2 construct: also called biotinylated recombinant human PD-1; Biotin-PD-1Fc
In words: competitive ELISA, PD-L1 immobilised, antibody mixed with biotinylated human PD-1; PD1/PDL1 antagonist activity. In general terms: In an ELISA, binding on a coated surface is turned into a signal by an enzyme label.

The target in assay [3] is T3, Recombinant hPD1 (Sino Biologicals, reference 10377-H08H) (human, UniProt Q15116 partial chain).
T3 construct: Bought reagent, immobilised on plastic; also called Human recombinant PD-1; rPD1
In words: ELISA, recombinant human PD-1 immobilised, anti-human Fc peroxidase.

For orientation: Kd means the free concentration of one partner at which half of the binding sites on the other are occupied at equilibrium, for simple one-to-one binding. Higher therefore signals weaker binding. As usually defined, the EC50 is the concentration at which the effect is half-maximal.

B1: anti PD-1*2 IL-7 W142H*1 (other)
heavy 1: QIQLVQSGSELKKPGASVKVSCKASGYTFTHYAMNWVRQAPGQGLEWMGWINTNTGEPTYAQGFTGRFVFSLDTSVSTAYLQISSLKAEDTAVYYCAREREPGMDNWGQGTLVTVSSASTKGPSVFPLAPSSKSTSGGTAALGCLVKDYFPEPVTVSWNSGALTSGVHTFPAVLQSSGLYSLSSVVTVPSSSLGTQTYICNVNHKPSNTKVDKKVEPKSCDKTHTCPPCPAPELLGGPSVFLFPPKPKDTLMISRTPEVTCVVVDVSHEDPEVKFNWYVDGVEVHNAKTKPREEQYASTYRVVSVLTVLHQDWLNGKEYKCKVSNKALPAPIEKTISKAKGQPREPQVYTLPPCRDELTKNQVSLWCLVKGFYPSDIAVEWESNGQPENNYKTTPPVLDSDGSFFLYSKLTVDKSRWQQGNVFSCSVMHEALHNHYTQKSLSLSPGK
heavy 2: QIQLVQSGSELKKPGASVKVSCKASGYTFTHYAMNWVRQAPGQGLEWMGWINTNTGEPTYAQGFTGRFVFSLDTSVSTAYLQISSLKAEDTAVYYCAREREPGMDNWGQGTLVTVSSASTKGPSVFPLAPSSKSTSGGTAALGCLVKDYFPEPVTVSWNSGALTSGVHTFPAVLQSSGLYSLSSVVTVPSSSLGTQTYICNVNHKPSNTKVDKKV[human IgG1 Fc with changes not listed]GGGGSGGGGSGGGGSDCDIEGKDGKQYESVLMVSIDQLLDSMKEIGSNCLNNEFNFFKRHICDANKEGMFLFRAARKLRQFLKMNSTGDFDLHLLKVSEGTTILLNCTGQVKGRKPAALGEAQPTKSLEENKSLKEQKKLNDLCFLKRLLQEIKTCHNKILMGTKEH
light: DVVMTQSPLSLPVTLGQPASISCRSSQSLVHANTNTYLEWYQQRPGQSPRLLIYKVSNRFSGVPDRFSGSGSGTDFTLKISRVEAEDVGVYYCFQGTHVPNTFGQGTKLEIKRTVAAPSVFIFPPSDEQLKSGTASVVCLLNNFYPREAKVQWKVDNALQSGNSQESVTEQDSKDSTYSLSSTLTLSKADYEKHKVYACEVTHQGLSSPVTKSFNRGEC
notes: Bifunctional antibody-cytokine fusion: two anti PD-1 arms and one IL-7 W142H; IgG1 N298A, knob on chain A and hole on chain B. Chain B carries the IL-7 variant; also called construction 2; anti PD-1*2/IL-7v*1
On to B1, for which the dissociation constant Kd in assay [1] was 45.2 nM. In addition, the EC50 in assay [2] amounted to 2.17 nM; in assay [3] it was 0.026 nM.

B2: anti PD-1*2 IL7 wild type*2 (other)
heavy: QIQLVQSGSELKKPGASVKVSCKASGYTFTHYAMNWVRQAPGQGLEWMGWINTNTGEPTYAQGFTGRFVFSLDTSVSTAYLQISSLKAEDTAVYYCAREREPGMDNWGQGTLVTVSSASTKGPSVFPLAPSSKSTSGGTAALGCLVKDYFPEPVTVSWNSGALTSGVHTFPAVLQSSGLYSLSSVVTVPSSSLGTQTYICNVNHKPSNTKVDKKV[human IgG1 Fc with changes not listed]GGGGSGGGGSGGGGSDCDIEGKDGKQYESVLMVSIDQLLDSMKEIGSNCLNNEFNFFKRHICDANKEGMFLFRAARKLRQFLKMNSTGDFDLHLLKVSEGTTILLNCTGQVKGRKPAALGEAQPTKSLEENKSLKEQKKLNDLCFLKRLLQEIKTCWNKILMGTKEH
light: DVVMTQSPLSLPVTLGQPASISCRSSQSLVHANTNTYLEWYQQRPGQSPRLLIYKVSNRFSGVPDRFSGSGSGTDFTLKISRVEAEDVGVYYCFQGTHVPNTFGQGTKLEIKRTVAAPSVFIFPPSDEQLKSGTASVVCLLNNFYPREAKVQWKVDNALQSGNSQESVTEQDSKDSTYSLSSTLTLSKADYEKHKVYACEVTHQGLSSPVTKSFNRGEC
notes: Control corresponding to construction 1 but with wild type IL-7; also called antiPD-1*2 IL-7 WT*2; BICKI-IL-7 WT
On to B2, for which binding in assay [1] was characterised by a dissociation constant (Kd) of 0.87 nM.

B3: anti PD-1*1 IL-7 W142H*2 (other)
chain: DKTHTCPPCPAPELLGGPSVFLFPPKPKDTLMISRTPEVTCVVVDVSHEDPEVKFNWYVDGVEVHNAKTKPREEQYASTYRVVSVLTVLHQDWLNGKEYKCKVSNKALPAPIEKTISKAKGQPREPQVYTLPPCRDELTKNQVSLWCLVKGFYPSDIAVEWESNGQPENNYKTTPPVLDSDGSFFLYSKLTVDKSRWQQGNVFSCSVMHEALHNHYTQKSLSLSPGKGGGGSGGGGSGGGGSDCDIEGKDGKQYESVLMVSIDQLLDSMKEIGSNCLNNEFNFFKRHICDANKEGMFLFRAARKLRQFLKMNSTGDFDLHLLKVSEGTTILLNCTGQVKGRKPAALGEAQPTKSLEENKSLKEQKKLNDLCFLKRLLQEIKTCHNKILMGTKEH
heavy: QIQLVQSGSELKKPGASVKVSCKASGYTFTHYAMNWVRQAPGQGLEWMGWINTNTGEPTYAQGFTGRFVFSLDTSVSTAYLQISSLKAEDTAVYYCAREREPGMDNWGQGTLVTVSSASTKGPSVFPLAPSSKSTSGGTAALGCLVKDYFPEPVTVSWNSGALTSGVHTFPAVLQSSGLYSLSSVVTVPSSSLGTQTYICNVNHKPSNTKVDKKV[human IgG1 Fc with changes not listed]GGGGSGGGGSGGGGSDCDIEGKDGKQYESVLMVSIDQLLDSMKEIGSNCLNNEFNFFKRHICDANKEGMFLFRAARKLRQFLKMNSTGDFDLHLLKVSEGTTILLNCTGQVKGRKPAALGEAQPTKSLEENKSLKEQKKLNDLCFLKRLLQEIKTCHNKILMGTKEH
light: DVVMTQSPLSLPVTLGQPASISCRSSQSLVHANTNTYLEWYQQRPGQSPRLLIYKVSNRFSGVPDRFSGSGSGTDFTLKISRVEAEDVGVYYCFQGTHVPNTFGQGTKLEIKRTVAAPSVFIFPPSDEQLKSGTASVVCLLNNFYPREAKVQWKVDNALQSGNSQESVTEQDSKDSTYSLSSTLTLSKADYEKHKVYACEVTHQGLSSPVTKSFNRGEC
notes: Bifunctional antibody-cytokine fusion: one anti PD-1 arm and two IL-7 W142H; IgG1 N298A, knob-into-hole; also called construction 4; anti PD-1*1/IL-7v*2
For the molecule B3, the EC50 in assay [3] is 0.086 nM.

B4: anti PD-1*2 IL-7 W142H*2 (other)
heavy: QIQLVQSGSELKKPGASVKVSCKASGYTFTHYAMNWVRQAPGQGLEWMGWINTNTGEPTYAQGFTGRFVFSLDTSVSTAYLQISSLKAEDTAVYYCAREREPGMDNWGQGTLVTVSSASTKGPSVFPLAPSSKSTSGGTAALGCLVKDYFPEPVTVSWNSGALTSGVHTFPAVLQSSGLYSLSSVVTVPSSSLGTQTYICNVNHKPSNTKVDKKV[human IgG1 Fc with changes not listed]GGGGSGGGGSGGGGSDCDIEGKDGKQYESVLMVSIDQLLDSMKEIGSNCLNNEFNFFKRHICDANKEGMFLFRAARKLRQFLKMNSTGDFDLHLLKVSEGTTILLNCTGQVKGRKPAALGEAQPTKSLEENKSLKEQKKLNDLCFLKRLLQEIKTCHNKILMGTKEH
light: DVVMTQSPLSLPVTLGQPASISCRSSQSLVHANTNTYLEWYQQRPGQSPRLLIYKVSNRFSGVPDRFSGSGSGTDFTLKISRVEAEDVGVYYCFQGTHVPNTFGQGTKLEIKRTVAAPSVFIFPPSDEQLKSGTASVVCLLNNFYPREAKVQWKVDNALQSGNSQESVTEQDSKDSTYSLSSTLTLSKADYEKHKVYACEVTHQGLSSPVTKSFNRGEC
notes: also called construction 1; BICKI-IL-7 W142H
B4: in assay [1], the Kd came out at 37.3 nM. In addition, the EC50 in assay [2] amounted to 2.79 nM; in assay [3] it was 0.034 nM.

The record behind these values is patent US20240182571A1 (OSE IMMUNOTHERAPEUTICS, published 2024).
